Data taken from the supplement of paper PMC4967469.

Key:
Assay in all cases: Viability of human cancer cell lines after 72 h of drug (GDSC screen)
FTI-277 = compound: COC(=O)[C@H](CCSC)NC(=O)c1ccc(NC[C@@H](N)CS)cc1-c1ccccc1 [FTI-277]; settings: top dose 1.024 µM; top dose inferred
Procedure: (§1)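 Human cancer cell lines in 384-well plates, medium with 10% serum, drug for 72 h over a 256-fold dose range (nine 2-fold or five 4-fold steps up to the top dose). Adherent lines were fixed and stained with the nucleic acid dye Syto60, suspension lines read with resazurin; signal relative to control wells, capped at 0 and 100%. One two-parameter sigmoid per drug and line, fitted in a mixed model over all curves with the slope shared within a line.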

YM155 = compound: COCC[n+]1c2c(n(Cc3cnccn3)c1C)C(=O)c1ccccc1C2=O [YM155]; settings: top dose 5.12 µM
Procedure: as §1

SB-715992 = compound: Cc1ccc(C(=O)N(CCCN)[C@@H](c2nc3cc(Cl)ccc3c(=O)n2Cc2ccccc2)C(C)C)cc1 [SB-715992]; settings: top dose 0.128 µM; top dose inferred
Procedure: as §1

JQ1 = compound: Cc1sc2c(c1C)C(c1ccc(Cl)cc1)=N[C@@H](CC(=O)OC(C)(C)C)c1nnc(C)n1-2 [JQ1]
Procedure: as §1

AMG-706 = compound: CC1(C)CNc2cc(NC(=O)c3cccnc3NCc3ccncc3)ccc21 [AMG-706]; settings: top dose 2 µM; top dose inferred
Procedure: as §1

OSI-906 = compound: C[C@]1(O)C[C@@H](c2nc(-c3ccc4ccc(-c5ccccc5)nc4c3)c3c(N)nccn32)C1 [OSI-906]; settings: top dose 2.56 µM; top dose inferred
Procedure: as §1

Docetaxel = compound: CC(=O)O[C@@]12CO[C@@H]1C[C@H](O)[C@@]1(C)C(=O)[C@H](O)C3=C(C)[C@@H](OC(=O)[C@H](O)[C@@H](NC(=O)OC(C)(C)C)c4ccccc4)C[C@@](O)([C@@H](OC(=O)c4ccccc4)[C@H]21)C3(C)C [Docetaxel]; settings: top dose 0.0125 µM
Procedure: as §1

JNJ-26854165 = compound: c1ccc2c(CCNc3ccc(Nc4ccncc4)cc3)c[nH]c2c1 [JNJ-26854165]; settings: top dose 10 µM
Procedure: as §1

JNK Inhibitor VIII = compound: CCOc1nc(NC(=O)Cc2cc(OC)ccc2OC)cc(N)c1C#N [JNK Inhibitor VIII]; settings: top dose 10 µM; top dose inferred
Procedure: as §1

Belinostat = compound: O=C(/C=C/c1cccc(S(=O)(=O)Nc2ccccc2)c1)NO [Belinostat]; settings: top dose 20 µM; top dose inferred
Procedure: as §1

NSC-207895 = compound: CN1CCN(c2ccc([N+](=O)[O-])c3no[n+]([O-])c23)CC1 [NSC-207895]; settings: top dose 20 µM; top dose inferred
Procedure: as §1

[1] = top dose 1 µM, screen: GDSC drug entry 1218, top dose inferred
[2] = top dose 2.56 µM, screen: GDSC drug entry 163

| Cell Line | AUC (FTI-277) | IC50 (FTI-277) | AUC (YM155) | IC50 (YM155) | AUC (SB-715992) | IC50 (SB-715992) | AUC (JQ1; [1]) | IC50 (JQ1; [1]) | AUC (JQ1; [2]) | IC50 (JQ1; [2]) | AUC (AMG-706) | IC50 (AMG-706) | AUC (OSI-906) | IC50 (OSI-906) | AUC (Docetaxel) | IC50 (Docetaxel) | AUC (JNJ-26854165) | IC50 (JNJ-26854165) | AUC (JNK Inhibitor VIII) | IC50 (JNK Inhibitor VIII) | AUC (Belinostat) | IC50 (Belinostat) | AUC (NSC-207895) | IC50 (NSC-207895) |
| --- | --- | --- | --- | --- | --- | --- | --- | --- | --- | --- | --- | --- | --- | --- | --- | --- | --- | --- | --- | --- | --- | --- | --- | --- |
| HT-1080 (fibrosarcoma, adherent) | 0.952 | > 1020 nM | 0.075 | < 20 nM | 0.976 | > 128 nM | 0.981 | > 1000 nM | 0.82 | 1270 nM | 0.985 | > 2000 nM | 0.989 | > 2560 nM | 0.442 | 0.552 nM | 0.761 | 3200 nM | 0.989 | > 10000 nM | 0.539 | 1580 nM | 0.91 | > 20000 nM |
| HT-1376 (bladder, adherent) | 0.967 | > 1020 nM | 0.883 | > 5120 nM | 0.982 | > 128 nM | 0.976 | > 1000 nM | 0.881 | > 2560 nM | 0.979 | > 2000 nM | 0.961 | > 2560 nM | 0.922 | > 12.5 nM | 0.963 | > 10000 nM | 0.955 | > 10000 nM | 0.829 | 15500 nM | 0.984 | > 20000 nM |
| Hs633T (fibrosarcoma, adherent) | 0.954 | > 1020 nM | 0.016 | < 20 nM | 0.753 | 36 nM | 0.852 | 565 nM | 0.586 | 263 nM | 0.965 | > 2000 nM | 0.957 | > 2560 nM | 0.739 | 3.22 nM | 0.845 | 5370 nM | 0.977 | > 10000 nM | 0.278 | 339 nM | 0.808 | 8170 nM |
| Hs766T (pancreas, adherent) | 0.978 | > 1020 nM | 0.454 | 230 nM | 0.984 | > 128 nM | 0.982 | > 1000 nM | 0.786 | 1500 nM | 0.981 | > 2000 nM | 0.984 | > 2560 nM | 0.898 | > 12.5 nM | 0.899 | > 10000 nM | 0.977 | > 10000 nM | 0.69 | 5120 nM | 0.983 | > 20000 nM |
| Hs939-T (melanoma, adherent) | 0.983 | > 1020 nM | 0.11 | < 20 nM | 0.966 | > 128 nM | 0.985 | > 1000 nM | 0.788 | 1240 nM | 0.96 | > 2000 nM | 0.986 | > 2560 nM | 0.866 | > 12.5 nM | 0.933 | > 10000 nM | 0.971 | > 10000 nM | 0.719 | 5570 nM | 0.956 | > 20000 nM |
| Hs-578-T (breast, adherent) | 0.987 | > 1020 nM | 0.732 | 1540 nM | 0.983 | > 128 nM | 0.981 | > 1000 nM | 0.904 | > 2560 nM | 0.944 | > 2000 nM | 0.976 | > 2560 nM | 0.728 | 3.64 nM | 0.885 | > 10000 nM | 0.986 | > 10000 nM | 0.734 | 6090 nM | 0.987 | > 20000 nM |
| HuO9 (osteosarcoma, adherent) | 0.984 | > 1020 nM | 0.692 | 1180 nM | 0.778 | 58 nM | 0.981 | > 1000 nM | 0.529 | 194 nM | 0.842 | 1630 nM | 0.97 | > 2560 nM | 0.731 | 3.86 nM | 0.812 | 6110 nM | 0.975 | > 10000 nM | 0.672 | 4000 nM | 0.984 | > 20000 nM |
| HuO-3N1 (osteosarcoma, adherent) | 0.96 | > 1020 nM | 0.324 | 87.9 nM | 0.962 | > 128 nM | 0.975 | > 1000 nM | 0.961 | > 2560 nM | 0.942 | > 2000 nM | 0.859 | > 2560 nM | 0.656 | 2.44 nM | 0.823 | 8590 nM | 0.981 | > 10000 nM | 0.72 | 6500 nM | 0.982 | > 20000 nM |
| HuP-T3 (pancreas, adherent) | 0.934 | > 1020 nM | 0.042 | < 20 nM | 0.879 | > 128 nM | 0.974 | > 1000 nM | 0.842 | 2430 nM | 0.973 | > 2000 nM | 0.922 | > 2560 nM | 0.761 | 5.37 nM | 0.943 | > 10000 nM | 0.96 | > 10000 nM | 0.46 | 950 nM | 0.916 | > 20000 nM |
| IGR-1 (melanoma, adherent) | 0.971 | > 1020 nM | 0.027 | < 20 nM | 0.857 | 84.7 nM | – | – | 0.62 | 328 nM | 0.99 | > 2000 nM | 0.96 | > 2560 nM | 0.827 | – | 0.752 | 2970 nM | 0.99 | > 10000 nM | 0.263 | 292 nM | 0.784 | 7390 nM |
| IHH-4 (thyroid, semi-adherent) | 0.926 | > 1020 nM | 0.014 | < 20 nM | 0.649 | 18.8 nM | 0.991 | > 1000 nM | 0.615 | 310 nM | 0.991 | > 2000 nM | 0.985 | > 2560 nM | 0.5 | 0.781 nM | 0.854 | 5570 nM | 0.985 | > 10000 nM | 0.352 | 533 nM | 0.886 | 14600 nM |

The IC50 comes from the fitted curve, where viability falls to half of the control; a fit beyond the top or the lowest dose is shown as a bound at that dose. The AUC spans the tested range (256-fold, ending at the top dose) of the same fit; it is 1 without any effect and falls as sensitivity rises. For part of these data: The top dose, if marked as inferred, was calculated from the reported fits. For part of these data: An entry number marks a drug with two screens in the source, which often give different values.
